# Experimental data as given in article PMC4336329 (PLoS ONE, 2015).
# Among all 310,000 compounds or so, about 2,200 (0.71%) showed an effect of 50% or more. Effects have a minus sign here. The list shows a part of the results.
# Target: human ether-à-go-go-related gene (hERG) potassium channel (human, UniProt Q12809)
# Assay: primary screen, population patch clamp on CHO cells stably expressing hERG
# human ether-à-go-go-related gene (hERG) potassium channel, sequence (Q12809 whole entry, looked up): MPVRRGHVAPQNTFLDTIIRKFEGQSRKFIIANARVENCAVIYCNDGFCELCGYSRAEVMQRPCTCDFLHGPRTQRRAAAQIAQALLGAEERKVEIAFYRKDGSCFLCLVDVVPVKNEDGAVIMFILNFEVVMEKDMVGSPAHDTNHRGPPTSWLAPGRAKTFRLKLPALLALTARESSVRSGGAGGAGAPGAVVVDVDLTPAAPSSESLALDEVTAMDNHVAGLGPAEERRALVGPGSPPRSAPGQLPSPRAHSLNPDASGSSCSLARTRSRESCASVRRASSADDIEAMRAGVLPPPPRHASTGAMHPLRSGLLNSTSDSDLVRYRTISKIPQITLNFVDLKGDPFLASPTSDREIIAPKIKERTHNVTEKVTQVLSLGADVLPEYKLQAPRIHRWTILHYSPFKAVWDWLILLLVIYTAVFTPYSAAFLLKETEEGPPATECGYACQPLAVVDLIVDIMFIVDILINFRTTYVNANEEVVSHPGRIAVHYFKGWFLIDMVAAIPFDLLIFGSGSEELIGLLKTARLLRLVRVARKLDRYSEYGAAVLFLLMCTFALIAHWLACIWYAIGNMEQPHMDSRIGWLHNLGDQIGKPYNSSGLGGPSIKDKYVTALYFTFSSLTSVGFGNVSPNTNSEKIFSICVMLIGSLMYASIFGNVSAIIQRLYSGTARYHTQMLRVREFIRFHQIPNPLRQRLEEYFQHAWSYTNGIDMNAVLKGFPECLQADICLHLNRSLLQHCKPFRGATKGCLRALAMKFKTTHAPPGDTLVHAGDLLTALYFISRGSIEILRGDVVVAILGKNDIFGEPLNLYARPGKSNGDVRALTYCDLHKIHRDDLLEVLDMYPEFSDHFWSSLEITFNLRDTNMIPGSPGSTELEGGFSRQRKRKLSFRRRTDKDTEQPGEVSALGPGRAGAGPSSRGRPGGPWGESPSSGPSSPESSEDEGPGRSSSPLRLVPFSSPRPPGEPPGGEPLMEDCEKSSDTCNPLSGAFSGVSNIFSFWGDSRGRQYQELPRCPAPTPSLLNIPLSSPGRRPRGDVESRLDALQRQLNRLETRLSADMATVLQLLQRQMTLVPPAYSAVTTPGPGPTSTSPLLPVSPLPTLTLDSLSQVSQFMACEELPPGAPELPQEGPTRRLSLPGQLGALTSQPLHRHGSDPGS
row,SMILES,"hERG current change (%, negative = inhibition) at 1uM [%]"
1,N=c1oc2ccc(Br)cc2cc1C(=O)NC1CCCCCC1,-4.24
2,CC(C)CNC(=O)COc1ncnc2ccccc12,13.2
3,COc1cc(C=C2C(=O)NC(=O)NC2=O)cc(OC)c1OC,13.9
4,Cc1onc(-c2ccccc2)c1C(=O)Oc1cccnc1,1.87
5,COc1ccc(NS(=O)(=O)c2cccc(C(=O)N3CCN(Cc4ccc5c(c4)OCO5)CC3)c2)cc1,-3.97
6,CCn1cc(C(=O)N2CCc3ccccc32)c(=O)c2cc(S(=O)(=O)N(C)C3CCCCC3)ccc21,3.05
7,O=C(c1cccc([N+](=O)[O-])c1)N1CCN(c2ccc(N3CCOCC3)nn2)CC1,6.94
8,CN(C(=O)c1ccc(NC(=O)C2CC=CCC2C(=O)O)cc1)c1ccccc1 (centres unmarked),9.64
9,CCc1ccc(NC(=O)CNC(=O)c2cn(-c3ccccc3OC)c(=O)c3ccccc23)cc1,10.9
10,CCC(=O)c1ccc(OC(=O)c2ccc(Br)o2)cc1,12.9
11,FC(F)(F)c1ccc(CN2C[C@@H]3C(c4ccccc4)C4(c5cccnc5)CC3(C4)[C@H]2c2ccccc2)cc1 (some centres unmarked),1.03
12,Cc1ccc(-c2nnc3c4ccccc4c(C)nn23)cc1S(=O)(=O)N1CCN(CCO)CC1,-8.5
13,O=C(COc1ccc(S(=O)(=O)NC2CCCCC2)cc1Cl)NCc1cccnc1,0.156
14,CC(C)c1ccc(C2c3[nH]c4ccccc4c3C[C@H]3C(=O)N(c4ccccc4C(=O)N4CCC[C@@H]4C(=O)O)C(=O)N23)cc1 (some centres unmarked),7.87
15,O=C(c1cc(-c2ccncc2)nc2ccccc12)N1CCN(c2ccccc2O)CC1,-0.758
16,Cc1ccc(Oc2nnc(-c3cccs3)c3ccccc23)cc1C,-8.41
17,CCOc1ccc(C(=O)NC(=S)Nc2ccccc2OC)cc1[N+](=O)[O-],3.79
18,Cc1cc(C)c(NC(=O)NC2CCCCC2)c(C)c1,13.7
19,Cc1ccc(C(=O)C(C)OC(=O)c2cc3cc([N+](=O)[O-])ccc3oc2=O)cc1 (centres unmarked),-0.781
20,O=c1[nH]c2ccccc2c2nc(-c3cccc(S(=O)(=O)N4CCCC4)c3)nn12,17.4
21,CCOC(=O)C1=C(C)C(c2ccc(OC)cc2)NC(=O)N1 (centres unmarked),12.7
22,Cc1ccc(N(CC(=O)N2CCCCC2)S(=O)(=O)c2ccc(C)cc2)cc1,7.07

row,SMILES,"hERG current change (%, negative = inhibition) at 1uM [%]"
1,S=C(c1ccc(N2CCOCC2)cc1)N1CCOCC1,14.3
2,Cc1cc(C)n2nc(C(=O)NC3CCCc4ccccc43)nc2n1 (centres unmarked),11.6
3,N#CCc1nnc2n1-c1ccccc1CCC2,-8.44
4,Cc1ccc(S(=O)(=O)N2CCN(C(=O)C3CSC4(C)CCC(=O)N34)CC2)cc1C (centres unmarked),1.82
5,COC(=O)CSc1nnc(CNC(=O)c2ccc(S(=O)(=O)N3CCCCC3)cc2)n1C,0.861
6,O=C1/C(=C/c2cccc([N+](=O)[O-])c2)Oc2cc(O)ccc21,12.7
7,Cc1cc(C)nc(/N=C(\N)Nc2ccc(S(N)(=O)=O)cc2)n1,14.1
8,O=C(CSc1nc2[nH]ncc2c(=O)[nH]1)Nc1ccc(Cl)c(Cl)c1,9.26
9,Cc1[nH][nH]c(=O)c1C(c1ccc(-c2cccc(Cl)c2)o1)c1c(C)[nH][nH]c1=O,11.4
10,COc1c(C)cc(C(=O)C2CCCN(Cc3cnc(N4CCOCC4)s3)C2)cc1C (centres unmarked),29.4
11,COC(=O)C1=C(C)OC(N)=C(C#N)C1c1ccsc1 (centres unmarked),-2.21
12,O=C1c2cccc3c(Cl)ccc(c23)C(=O)N1O,12.8
13,COCCSc1ccccc1C(=O)N1CCc2ccccc21,12.2
14,CC(C)c1ccc(C(C)NCCS(=O)(=O)c2ccc(Cl)cc2)cc1 (centres unmarked),-4
15,COC(=O)c1ccc(/C=C/c2c(-c3ccc(OC)cc3)oc3ccc(N4CCOCC4)cc23)cc1,20.1
16,COc1ccc(C2N(c3cc(Cl)ccc3OC)C(=O)C3CCCN32)c(OC)c1 (centres unmarked),3.14
17,COc1ccccc1C1(CC(=O)O)CCOC(C(C)C)C1 (centres unmarked),1.68
18,COc1ccc(OC)c(/C=N/NC(=O)Cc2nc3ccccc3[nH]2)c1,-3.24
19,COC(=O)c1c(NC(=O)CSc2nnc3ccccn23)sc2c1CCC2,-6.76
20,CC(=O)c1ccccc1NC(=O)CCCNC(=O)c1ccc(Cl)cc1,13.1
21,COc1ccccc1C(=O)C1CCCN(C(=O)Nc2ccccc2F)C1 (centres unmarked),11.1
22,O=C1Nc2c(ccc(Cl)c2Cl)C(=O)C1(F)c1ccccc1 (centres unmarked),10.5
